From PMC6919601, “Identification of Plasmodium dipeptidyl aminopeptidase allosteric inhibitors by high throughput screening” (PLoS ONE, 2019)
“And” between values parts separate entries of the source, which are not always exact repeats. Equal entries are not always repeated. About 230 (0.21%) of roughly 110,000 compounds showed an effect of 50% or more. Some of the results follow.

What follows are compounds tested against DPAP1 (Plasmodium falciparum, UniProt Q8IIJ9) (assay: primary screen, percent inhibition; read by cleavage of a fluorogenic dipeptide substrate; higher = more effect of the substance).
Design: species or system P. falciparum D10 trophozoite lysates; single well
Description: HTS was performed in black 384-well plates. The first and last two columns of each plate contained our negative (DMSO) and positive (10 μM JCP410) controls, and the 20 central columns the test compounds at 10 μM. Compounds were first diluted 50-fold into assay buffer (50 mM sodium acetate, 5 mM MgCl2, 10 mM β-mercaptoethanol, and 0.1% CHAPS, pH 5.5) from a 10 mM DMSO stock plates. One microliter of this 200 μM intermediate stock plate was dispensed into the assay plate. […] After 30 min, the reaction was quenched with 20 μL of 0.5 M acetic acid, and the fluorescent intensity measured at 523 nm (λex = 492 nm) using an Analyst HT multimode plate reader (Molecular Devices).
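Also: 30 min substrate incubation versus DMSO and 10 µM JCP410 controls.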

Sequence of DPAP1 (Q8IIJ9 whole entry, looked up): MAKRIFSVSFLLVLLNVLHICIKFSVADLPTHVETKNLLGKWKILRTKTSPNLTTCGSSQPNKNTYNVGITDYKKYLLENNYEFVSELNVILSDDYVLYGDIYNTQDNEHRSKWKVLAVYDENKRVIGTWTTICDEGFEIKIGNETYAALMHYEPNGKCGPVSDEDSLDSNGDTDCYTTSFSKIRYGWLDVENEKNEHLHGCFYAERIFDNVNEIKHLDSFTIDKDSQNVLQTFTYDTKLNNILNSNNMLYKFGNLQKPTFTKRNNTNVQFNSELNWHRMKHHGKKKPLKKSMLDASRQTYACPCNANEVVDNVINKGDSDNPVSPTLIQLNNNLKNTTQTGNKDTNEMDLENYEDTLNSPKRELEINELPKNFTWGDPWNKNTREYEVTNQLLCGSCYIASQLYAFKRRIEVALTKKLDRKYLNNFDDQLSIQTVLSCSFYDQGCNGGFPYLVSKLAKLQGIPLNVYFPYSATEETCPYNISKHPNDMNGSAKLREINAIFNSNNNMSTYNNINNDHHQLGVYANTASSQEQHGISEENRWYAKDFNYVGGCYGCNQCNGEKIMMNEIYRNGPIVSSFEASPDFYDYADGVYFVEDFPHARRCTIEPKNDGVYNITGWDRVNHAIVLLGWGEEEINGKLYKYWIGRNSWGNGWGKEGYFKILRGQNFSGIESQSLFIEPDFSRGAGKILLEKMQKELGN

Compared with CCCN1CCC(NC2CCCC2)CC1, CCN1CCCC1CNC(=O)C1CCN(c2ncnc3c2nc2n3CCCCC2)CC1 (stereo not shown) is higher in “% Inhibition @ 10 uM” value: -1.81% for the first, 0.483% for the second.

Compared with CC1NC(=O)N(C)C2C1C(c1ccccc1)NC(=O)N2C (stereo not shown), O=C1CNCC(=O)N1CCc1ccccc1 is lower in “% Inhibition @ 10 uM” value: 3.69% for the first, -0.216% for the second.

First: CCOc1ccc(C(=O)CCN(C)C)cc1
Second: CCOc1ccc(/N=C/Nc2ccc(OCC)cc2)cc1
The “% Inhibition @ 10 uM” value of the first is higher: -1.25% for the first, -10.7% for the second.

First: Nc1nonc1-c1nc2ccccc2n1CC(=O)Nc1ccccc1C(F)(F)F
Second: O=C(OCCCC(F)(F)C(F)(F)F)c1ccccc1C(=O)n1nnc2ccccc21
The “% Inhibition @ 10 uM” value of the first is higher: 31.1% for the first, -8.17% for the second.

Compared with O=C(CN(c1cc(C(F)(F)F)ccc1Cl)S(=O)(=O)c1ccccc1)NCc1cccnc1, Cc1c(Cl)cccc1N(CC(=O)NCc1ccncc1)S(=O)(=O)c1ccccc1 is higher in “% Inhibition @ 10 uM” value: 1.62% for the first, 2.39% for the second.

Going from Cc1nn(Cc2ccccc2)c2ncccc12 to Nc1cc(=O)[nH]c(=O)n1Cc1ccccc1, the “% Inhibition @ 10 uM” value rises from -5.5% to 2.03%.

Compared with Cc1ccc(C)c(NCc2ccccn2)c1, Cc1ccc(OC(C)C(=O)Nc2cccc(Cl)c2)cc1 (stereo not shown) is lower in “% Inhibition @ 10 uM” value: -2.35% for the first, -6.57% for the second.

Compared with C=C(C)Cn1c(SCC(=O)Nc2nccs2)nc2sc3c(c2c1=O)CCC3, Cc1cc(C)c2nnc(SCC(=O)Nc3nccs3)n2n1 is lower in “% Inhibition @ 10 uM” value: -0.994% for the first, -1.05% for the second.

Going from CC(C)(C)c1ccc(S(=O)(=O)N2CCC(C(N)=O)(N3CCCCC3)CC2)cc1 to Cc1ccc(CCNC(=O)Cn2ccc3cc(S(=O)(=O)N4CCCC4)ccc32)cc1, the “% Inhibition @ 10 uM” value rises from -4.19% to -2%.

First: CC1=C(C)CC2C(=O)N(c3ccccc3Cl)C(=O)C2C1 (stereo not shown)
Second: Cn1c(=O)n(C)c2cc(/C=C3/SC(=O)N(Cc4ccccc4Cl)C3=O)ccc21
The “% Inhibition @ 10 uM” value of the first is higher: 1.96% for the first, -12.1% for the second.

Compared with O=C1CCCN1CCC/N=C/c1c(-c2ccccc2)nn(-c2nc3ccccc3s2)c1O, Cc1nc2c(c(C)nn2-c2ccccc2)c(C)c1CCC(=O)NC1CCN(Cc2ccccc2)CC1 is higher in “% Inhibition @ 10 uM” value: -5.26% for the first, -2.25% for the second.

First: c1ccc2c(c1)CCN(Cc1nnc(-c3ccc4c(c3)OCO4)o1)C2
Second: Fc1ccc(F)c(CN2CCN(c3ccccc3)CC2)c1
The “% Inhibition @ 10 uM” value of the first is lower: -3.34% for the first, 1.08% for the second.

Going from O=c1oc2ccccc2cc1-c1cn(-c2ccccc2F)c(S)n1 to O=C(c1ccccc1F)c1cn(CC(=O)N2CCCCC2)c2ccccc12, the “% Inhibition @ 10 uM” value falls from 16.4% to -1.72%.

Going from Cc1ccccc1OCC(=O)Nc1nn2c(C)nnc2s1 to CC(=O)Nc1ccc(NC(=O)C(C)Oc2ccccc2C)cc1 (stereo not shown), the “% Inhibition @ 10 uM” value falls from 0.522% to -4.02%.

First: CC1CCCC(C)N1C(=O)c1ccc(Cl)cc1 (stereo not shown)
Second: CN(C)C(=O)c1nnc(Cc2ccc(Cl)cc2)o1
The “% Inhibition @ 10 uM” value of the first is lower: -3.82% for the first, 0.738% for the second.

Compared with CC1CCN(S(=O)(=O)c2ccc(NC(=O)Nc3ccccc3)cc2)CC1, O=C(CSc1ccccn1)N1CCN(S(=O)(=O)c2ccccc2)C1 is lower in “% Inhibition @ 10 uM” value: 13.9% for the first, 6.47% for the second.

Fc1ccc(OCCCn2ccnc2)cc1 and O=C(c1cccnc1)N1CCN(c2ccc(F)cc2)CC1 are the same in “% Inhibition @ 10 uM” value: -0.833% for the first, -0.833% for the second.

Going from COc1cc(C2C3=C(CC(C)(C)CC3=O)OC3=C2C(=O)CC(C)(C)C3)cc2sc(=O)oc12 to Cc1cc2oc(C(=O)Nc3nnc(CC(C)C)s3)cc(=O)c2cc1C, the “% Inhibition @ 10 uM” value rises from -4.01% to -3.24%.

Going from COCCNc1nc2c(=O)[nH]c(=O)n(C)c2[nH]1 to CCCOc1ccc(-c2nc3c(=O)n(C)c(=O)n(C)c3[nH]2)cc1, the “% Inhibition @ 10 uM” value rises from -3.28% to 3.69%.

Going from O=C(O)c1ccc2c(c1)C(=O)NC2=O to COCCN1C(=O)c2ccccc2C(C(=O)O)C1c1ccccc1O (stereo not shown), the “% Inhibition @ 10 uM” value falls from 3.47% to -4.33%.

Compared with COc1ccc(CN2CCN(C(=O)C(C)n3sc4ccccc4c3=O)CC2)c(OC)c1OC (stereo not shown), CCOc1ccc(CCNC(=O)C(CC)n2sc3ccccc3c2=O)cc1OCC (stereo not shown) is lower in “% Inhibition @ 10 uM” value: 0.544% for the first, -8.05% for the second.

Going from CCSc1nc2c(c(=O)n1C1CCCCC1)C1(CCCCC1)Cc1ccccc1-2 to COc1ccc(CNC(=O)COc2ccc3c(c2)C(=O)CC2(CCCCC2)O3)cc1, the “% Inhibition @ 10 uM” value rises from 1.4% to 3.89%.

First: CCCCN(CCCC)CC1OCc2ccccc2CO1
Second: Cc1cc2ccccc2c(=O)n1CC(=O)NCCCN1CCC(C)CC1
The “% Inhibition @ 10 uM” value of the first is lower: -3.45% for the first, -1.51% for the second.

First: COC(=O)c1cc(-c2cccc(OC)c2)c2c(=O)n(C)c(=O)n(C)c2n1
Second: COc1cc(C(=O)Nc2cccc(-c3nc4ncccc4o3)c2)cc(OC)c1OC
The “% Inhibition @ 10 uM” value of the first is lower: 2.73% for the first, 5.07% for the second.

Compared with Nc1ccc(O)c(-c2nc3cc(N)ccc3s2)c1, CCOc1cc(C2C(C#N)=C(N)Oc3c2c(C)nn3-c2ccccc2)ccc1O (stereo not shown) is lower in “% Inhibition @ 10 uM” value: -2.42% for the first, -5.79% for the second.

Going from O=C(Cn1cc(C(=O)c2ccco2)c2ccccc21)NCc1ccccc1 to CC(Cc1ccccc1)NC(=O)CC(c1ccccc1)c1ccccc1 (stereo not shown), the “% Inhibition @ 10 uM” value rises from -3.13% to -1.56%.

Compared with CCCc1nnc(NC(=O)c2cc(=O)c3cc(C)ccc3o2)s1, CCOCCCN(Cc1ccco1)C(=O)c1cc2c(=O)oc3ccc(C)cc3c2s1 is higher in “% Inhibition @ 10 uM” value: 1.9% for the first, 4.68% for the second.

First: COc1cccc(/C=C2/NC(=O)N(c3ccccc3)C2=O)c1OCC(=O)Nc1ccccc1
Second: O=S(=O)(Nc1nc2ccccc2nc1-n1cnc2ccccc21)c1ccccc1
The “% Inhibition @ 10 uM” value of the first is higher: 1.57% for the first, -0.415% for the second.

First: CC(=O)NC(Cc1ccccc1)P(=O)(O)O (stereo not shown)
Second: CC(CCc1ccccc1)NC(=O)Cn1cc2c(n1)CCCC2 (stereo not shown)
The “% Inhibition @ 10 uM” value of the first is lower: -1.05% for the first, 1.8% for the second.

First: CC1CCC(C(C)C)C(OP(=O)(c2ccccc2)C(O)c2ccncc2)C1 (stereo not shown)
Second: O=C1CC(c2cccc(O)c2)c2c(O)nc(SCc3ccccc3Cl)nc2N1 (stereo not shown)
The “% Inhibition @ 10 uM” value of the first is lower: -5.41% for the first, 8.16% for the second.

Going from CC(C)CN1CC(C(=O)O)CC1=O (stereo not shown) to CSc1ncc(C(=O)N[C@@H](CC(C)C)C(=O)NCC#N)cn1, the “% Inhibition @ 10 uM” value falls from 1.51% to -3.48%.

First: CCOC(=O)c1c(C)n(Cc2ccc(F)cc2)c2ccc(O)cc12
Second: COCCNCc1c(C(=O)O)n(Cc2ccccc2C)c2cc(OC)ccc12
The “% Inhibition @ 10 uM” value of the first is higher: 0.413% for the first, -3.46% for the second.

Going from COc1cc(/C=C2\C(=N)N3N=C(N4CCCC4)SC3=NC2=O)cc(OC)c1OC to COc1ccc(/C=C2\N=C(c3ccc(C)cc3)OC2=O)cc1OC, the “% Inhibition @ 10 uM” value falls from 6.38% to -2.23%.

Compared with COC(=O)C1=C(C)N(Cc2ccco2)C(=O)/C1=C\c1cc(C)n(-c2ccc(OC)c(Cl)c2)c1C, CC(C)N1C(=O)/C(=C/Nc2ccc(Cl)cc2)C(=O)N(Cc2ccco2)C1=O is higher in “% Inhibition @ 10 uM” value: -3.63% for the first, -1.06% for the second.

First: CCC1CCc2c(sc(NC(=O)C3CCCCC3C(=O)O)c2C(N)=O)C1 (stereo not shown)
Second: CCC1CCc2c(sc(NS(=O)(=O)c3ccc(NC(C)=O)cc3)c2C(N)=O)C1 (stereo not shown)
The “% Inhibition @ 10 uM” value of the first is lower: 3.04% for the first, 7.03% for the second.

First: CCO/C(O)=C1\C(C)=NC(=S)NC1c1ccc(OC)c2ccccc12 (stereo not shown)
Second: CCOC(=O)/C(C#N)=C/c1c(Oc2ccccc2Cl)nc2ccccn2c1=O
The “% Inhibition @ 10 uM” value of the first is higher: 3.06% for the first, 3% for the second.

Going from CN1CCc2c(sc(N)c2C(=O)OC(C)(C)C)C1 to Cc1ccc(NC(=O)C2CCCN2C(=O)C(C)(C)C)cc1 (stereo not shown), the “% Inhibition @ 10 uM” value rises from -2.97% to 7.93%.

Going from CC(C)CC(NC(=O)c1ccc(NC(=O)Nc2nccs2)cc1)C(=O)NCC#N (stereo not shown) to Cc1ccc(C(=O)NC(C)c2ccc3c(c2)OCCO3)cc1 (stereo not shown), the “% Inhibition @ 10 uM” value rises from -5.64% to 0.13%.

First: C=CCOC(=O)C1=C(C)N=C2CCCC(O)=C2C1c1cccc(Cl)c1Cl (stereo not shown)
Second: N#CC1=C(N)N(c2cccnc2Cl)C2=C(C(=O)CCC2)C1c1cc(CN2CCOCC2)cs1 (stereo not shown)
The “% Inhibition @ 10 uM” value of the first is lower: -4.18% for the first, -1.24% for the second.

Going from CCC(C)NC(=O)C1CC(c2ccc(F)cc2)=NO1 (stereo not shown) to O=C(NCC(c1ccco1)N1CCCC1)c1ccc(Br)cc1 (stereo not shown), the “% Inhibition @ 10 uM” value rises from 2.85% to 3.66%.

Going from CCOc1ccc(CNc2nc3ccc(Cl)cc3nc2-n2nc(C)cc2C)cc1OC to COc1ccc(N2C(=O)CC(NCc3ccc(Cl)cc3)C2=O)cc1 (stereo not shown), the “% Inhibition @ 10 uM” value falls from 2.56% to 1.15%.

Compared with Cc1cccc(NC(=O)c2cc3c(s2)-c2c(C)cccc2OC3)n1, COc1ccc(C2C(C#N)=C(C)NC3=C2S(=O)(=O)c2ccccc23)cc1 (stereo not shown) is higher in “% Inhibition @ 10 uM” value: -1.37% for the first, -0.68% for the second.

First: Cc1nn(-c2ccccc2)c(O)c1C1(C(F)(F)F)C(=O)Nc2c1c(=O)[nH]c(=O)n2Cc1ccco1 (stereo not shown)
Second: O=C(Nc1ccc(Cl)cc1)c1cc2n(n1)C(C(F)(F)F)CC(c1ccco1)N2 (stereo not shown)
The “% Inhibition @ 10 uM” value of the first is lower: 1.91% for the first, 4.07% for the second.

Going from COCc1[nH]nc2c1C(c1cc(Br)ccc1F)C(C#N)=C(N)O2 (stereo not shown) to C=CCOc1nc2c(c(=O)n(Cc3ccc(Br)cc3)c(=O)n2C)n1C, the “% Inhibition @ 10 uM” value falls from 3.99% to 3.6%.

Compared with Cc1ccc2nc(NC(=O)C3CCN(S(=O)(=O)c4cccs4)CC3)sc2c1, O=C(CCCCn1c(=O)[nH]c2ccsc2c1=O)N1CCN(c2ccccn2)CC1 is lower in “% Inhibition @ 10 uM” value: 31.4% for the first, -3.27% for the second.

First: COc1ccc2c(c1)CC/C(=C\c1ccc([N+](=O)[O-])cc1)C2=O
Second: O=C(Cn1nnc2sc(-c3ccccc3)cc2c1=O)c1ccc(Cl)cc1
The “% Inhibition @ 10 uM” value of the first is lower: -1.77% for the first, -0.946% for the second.

Going from COc1ccc(Nc2nc(OC(C(F)(F)F)C(F)(F)F)nc(N3CCOCC3)n2)cc1 to O=C(CCCSc1nc(-c2ccco2)cc(C(F)(F)F)n1)NCC1CCCO1 (stereo not shown), the “% Inhibition @ 10 uM” value falls from -3.58% to -11.5%.

Going from CCOc1nc(-c2ccccc2)nc(C)c1Cc1ccccc1 to O=C(NC1CCCc2ccccc21)C1c2ccccc2C(=O)N2CCc3ccccc3C12 (stereo not shown), the “% Inhibition @ 10 uM” value falls from 2.89% to 1.81%.

First: CC(C)N1C(=O)/C(=C/c2ccc(Cl)cc2Cl)SC1=S
Second: CN(C)C(=O)C12CCC(C)(c3nc4ccccc4nc31)C2(C)C (stereo not shown)
The “% Inhibition @ 10 uM” value of the first is higher: 1% for the first, -0.0619% for the second.

In the case of O=C(OCC(O)CN1CCOCC1)C12CC3CC(CC(C3)C1)C2 (stereo not shown), the “% Inhibition @ 10 uM” value is reported as -0.0267%.

In the case of Oc1ccc(CCc2ncccc2O)cc1, the “% Inhibition @ 10 uM” value is reported as -2.18% and -9.55%.
